The chains are these.
B1: LINE1-mini (parent)
chain: GGCAGAGCUCAACACAGCGUGGCAAAGUGGCUGUGGCUAGACUGCC

Read counts are not given, so values of variants with three or more changes are uncertain.

In this data set the parent is B1. Description: self-cleavage, relative activity (ratio to wild type); higher = more cleavage; in vitro, sequencing; the parent is a self-cleaving ribozyme.
On to CGCAGAGCUCAACACACCGUAGGAAAGUGGCUGUGGCUAGACUGUC [G1C G17C G21A C23G C45U], for which the self-cleavage turned out to be 0.11.

For CGCAGAGCUCAACACAGCGUGGCAAAGUGUAUGUGGCUAGACUGCC [G1C G30U C31A], the self-cleavage worked out at 0.01. Take CGCAGAGCUCAACACAGCGUGGCAAAGUGGCUGUAGCUAGACUGGC [G1C G35A C45G]: the self-cleavage amounted to 0.02.

Turning to CGCAGAGCUCAACACAGCGUGGCAAAGUGGCUUUGCCUAGACUGGC [G1C G33U G36C C45G], the self-cleavage worked out at 0.01. Consider CGCAGAGCCCAACACAGCGUGGCAAAGUGGCUGUGGCUUGACUGCC [G1C U9C A39U], for which the self-cleavage came out at 0.04. For CGCAGAGCUCAACACAGCUUGGAAAACUGGCUGUGGCUAGACUGCC [G1C G19U C23A G27C], the self-cleavage came to 0.09. As for UGCCGACCUCAACACAGCGUGGCAAAGUGGCUGUGGCUAAACUGCC [G1U A4C G7C G40A], the figure is 0.11. Take CGCAGAGCUCAACACAUCGUCGCAAAGUGGCUGUGGCUAGACUGCC [G1C G17U G21C]: the self-cleavage is 0.06. As for CGCAGAGCUCAACACAGCGUGACAAAGUGGCUGUGGCUAGACUGUC [G1C G22A C45U], the figure is 0.12; as for CGCAGAGCACAACACAGCGUGGCAAAGUCGCUGUGGCUAGACUGCC [G1C U9A G29C], 0.

As for CGCAGAGCCCAACACAGCGUGGCAGAGUGGCUGUGGCUAGACUGCG [G1C U9C A25G C46G], the self-cleavage was determined as 0.01. CGCAGAGCUCAACACAGCGCGGCAAAGUGGCUGUAACUAGACUGCA [G1C U20C G35A G36A C46A]: the self-cleavage is 0.01. CGCAGAGCUCAACACAGCAUGGCAAAGUGGCAGAGGCUAGACUGCC [G1C G19A U32A U34A]: the self-cleavage came to 0.04. On to CGCAGAGCUCAACACAGCUUCGCAAAGUGGCUGUGGCUAGACUGCC [G1C G19U G21C], for which the self-cleavage is 0.07. Take CGCAGAGCUCAACACAGCGUGGCAAACUGUCUGUGGGUAGACUGCU [G1C G27C G30U C37G C46U]: the self-cleavage was determined as 0.03. As for CGCAGAGCUCAACACAGCCUGGCAAAGUUGCUGUGGCUAGACUGCC [G1C G19C G29U], the figure is 0.06; as for UGCCGAGCUCCACACAGCGUGGCAAAGUGGCUGUGGCUAGACUGCC [G1U A4C A11C], 0.01. Regarding CGCAGAGCCAAACACAGCGUGGCAAGGUUGCUGUGGCUAGACUCCC [G1C U9C C10A A26G G29U G44C], the self-cleavage stood at 0. As for CGCAGAGCUCAACACAGCGUGGCAAAGUGUAUGUGACGUGACUGCC [G1C G30U C31A G36A U38G A39U], the figure is 0.07; as for CGCAGAGCCCAACACAGCACGGCAAAGUGGCUGUGGCUAGACUGCC [G1C U9C G19A U20C], 0; as for CGCAGAGCUCAACACAACGUGGAAAAGUGGCUGUGGCUAGACUGGC [G1C G17A C23A C45G], 0.04. Regarding CGCAGAGCUCAACACAGCGUGGCAAAGUGGCGGUGGCUAGACUGUC [G1C U32G C45U], the self-cleavage turned out to be 0.05. Consider UGCCCAGCUCCACACAGCGUGGCAAAGUGGCUGUUGCUAGACUGCC [G1U A4C G5C A11C G35U], for which the self-cleavage turned out to be 0.02.

Take CGCAGAGCUCAACACAGCGUGGCAAAGUAGCCGUGGCUUGACUGCC [G1C G29A U32C A39U]: the self-cleavage stood at 0.01.

For the variant CGCAGAGCUCAACACAGCGUGGCAAAGUAACUGUGGCUACACUGCC [G1C G29A G30A G40C], the self-cleavage came out at 0.02. For the variant CGCAGAGCGUAACGCAGCGUGGUAAAGUGGCUGUGGCAAGACUGCC [G1C U9G C10U A14G C23U U38A], the self-cleavage turned out to be 0.

Take CGCAGAGCUCAACACAGCGUGUCAAAGUAGCUGUGGCUAUACUGCC [G1C G22U G29A G40U]: the self-cleavage was 0.16. For CGCAGAGCUCAACACAGCGCGGCAAAUUGGCUGUGGCUAGACUGUC [G1C U20C G27U C45U], the self-cleavage is 0.05. For CGCAGAGCUCAACACAGCGUGUCAAAAUGGCUGUGGCUAGACUGCC [G1C G22U G27A], the self-cleavage was 0.09. As to CGCAGAGCUCAACACACCGUGGCAAAGUGCCUGUGGCGAGACUGCC [G1C G17C G30C U38G], the self-cleavage was found to be 0.01.

As for CGCAGAGCUCAACACAGCGUGACAAAGUGGAUGUGGCUAGACUGCC [G1C G22A C31A], the self-cleavage turned out to be 0.01. For the variant CGCAGAGCUCAACACAACGUGGCAAAGUGACUGUGGCCAGACUGCU [G1C G17A G30A U38C C46U], the self-cleavage turned out to be 0. As for CGCAGAGCUCAACACAGCGUGCCAUAGUGGUUGUGGCUAGACUGCC [G1C G22C A25U C31U], the self-cleavage was determined as 0.04. As to CGCAGAGCUCAACACAGCGAGGCAAAGUGGCUGUGGCGAGACUGCC [G1C U20A U38G], the self-cleavage was 0.02. With CGCAGAGCUCAACACAGCGUGGCAAAGUUGCUGUGGCAAUACUGCC [G1C G29U U38A G40U], the self-cleavage was 0. As for UGCCGAGCUCAACAAAGCUUGGCAAAGUGGCUGUGGCUAGAUUGCC [G1U A4C C15A G19U C42U], the self-cleavage was found to be 0.01. For the variant CGCAGAGCUCAACACAGCGUGGCAAAGUGCCUGUGGCUAAACUGCA [G1C G30C G40A C46A], the self-cleavage stood at 0.02.

As for CGCAGAGCCCAACACAGCGUGGCAAAGUGGCAGCGGCUAGACUGCC [G1C U9C U32A U34C], the self-cleavage came to 0.02.

On to CGCAGAGCUCAACACAUCGUGGCAAAGUGGCUGUCGCUAGACUGCC [G1C G17U G35C], for which the self-cleavage was determined as 0. Consider UGCCGAGCUCAACUCAGCGUUGCAAAGUGACUGUGGCUAGACUGCC [G1U A4C A14U G21U G30A], for which the self-cleavage amounted to 0.01. As for CGCAGAGCUCAACACAGCGUGGCAAAGUGGCUAUUGCUAGACUGCC [G1C G33A G35U], the figure is 0.03; as for CGCAGAGCUCAACACAGCGUGGCAAAGUGCCUGUGUCUAGACUGCC [G1C G30C G36U], 0.02.

With CGCAGAGCCCAACACCGCGUGGCAAAGUGGCUGUGGCUAAAAUGCC [G1C U9C A16C G40A C42A], the self-cleavage came to 0. With CGCAGAGCUCAACACAGCGUGGCAAAGUCGCUGUGGCUCGAAUGCC [G1C G29C A39C C42A], the self-cleavage is 0.

Take CGCAGAGCUCAACACAGCGUGGCAAAGUGGCAGUGGUUGGACUGCA [G1C U32A C37U A39G C46A]: the self-cleavage amounted to 0.08.

In the case of CGCAGAGCUCAACACAGCGUGGCAAAUGGGCUGUAGCUAGACUGUC [G1C G27U U28G G35A C45U], the self-cleavage is 0.02. As for CGCAGAGCGCAACACAGCGUGGCAUAGUGGCUGUGGCUAGACUGCA [G1C U9G A25U C46A], the figure is 0; as for CGCAGAGCUCAACACAGCGUGGCAAAUUGGCUGUGGCUAGACUGAC [G1C G27U C45A], 0.17; as for CGCAGAGCUCAACACAGCGUGGCAAAGUGGCUCAGGCUCGACUACC [G1C G33C U34A A39C G44A], 0.01.

Turning to CGCAGAGCGCAACACAACAUGGCAAAGUGGCUGUCUCUAGACUGCC [G1C U9G G17A G19A G35C G36U], the self-cleavage is 0.01.

For CGCAGAGCUCAACACAGCGUGGCAAAGUGGCUGUGGCUAUAAUGCC [G1C G40U C42A], the self-cleavage was 0.02. As for CGCAGAGCUCAACACAACAUGGCAAAGUGGCUGUGGCUAGACAGCC [G1C G17A G19A U43A], the self-cleavage was 0.01. As for CGCAGAGCUCAACACAGCGUAGCAAAGUGGCUGUGGCUAGACUACC [G1C G21A G44A], the figure is 0.03. As to CGCAGAGCACAACACAGCGUGGCAACGUGGCUGUGUCUAGACUGCC [G1C U9A A26C G36U], the self-cleavage was 0.03.

Take CGCAGAGCUCAACACAGCUUGGCAAAGUAGCAGUGCCUAGACUACC [G1C G19U G29A U32A G36C G44A]: the self-cleavage was found to be 0.01. On to CGCAGAGCUCAACACAGCGUUGAAAAGUGGGUGUGGCUAGACUGCC [G1C G21U C23A C31G], for which the self-cleavage stood at 0.02.

(Values after the RNAGym collection of RNA variant scans (doi:10.7554/elife.90254).)
